Data published in patent US20210221891A1 (NANJING LEGEND BIOTECH, published 2021).
Where two headings read alike, the source gives them in different places.

Tests used:
[1] = molecular target: T1, human PD-L1 expressed on CHO-K1 cells (human, UniProt Q9NZQ7); assay: cell-based or functional assay
[2] = molecular target: T1, human PD-L1 expressed on CHO-K1 cells; assay: cell-based or functional assay; remark: listed apart in the source
[3] = molecular target: T2, recombinant human PD-L1 His protein (R&D System) (human, UniProt Q9NZQ7 part only); assay: SPR, Biacore; affinity ranking of HCAbs, PD-L1/His printed as ligand
T2 construct: Bought protein; not shown: His tag

T1 sequence (Q9NZQ7 19-290): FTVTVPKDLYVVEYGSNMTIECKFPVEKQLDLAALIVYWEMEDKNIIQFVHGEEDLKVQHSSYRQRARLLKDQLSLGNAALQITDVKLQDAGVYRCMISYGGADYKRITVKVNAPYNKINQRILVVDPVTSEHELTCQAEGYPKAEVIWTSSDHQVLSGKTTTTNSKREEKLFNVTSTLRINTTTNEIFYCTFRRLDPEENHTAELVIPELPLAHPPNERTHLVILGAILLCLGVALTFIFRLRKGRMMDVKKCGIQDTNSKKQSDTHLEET

B1: AS06750 HCAb (Fc fusion)
heavy: AVQLVESGGGLVQAGDSLRLSCTASGRTFLTYAVGWFRQAPGTEREFVAGIRWSGGYTDYADSVKGRFTISRDNAKNTVYLQMNSLKPEDTAVYYCAAHRTIATIPEKYEYEYWGQGTQVTVSS[human IgG1 Fc not written out]
notes: heavy chain-only antibody: sdAb fused with human Fc region
With B1 the “EC50 of PD-L1- based blockade assay for HCAbs” value (“EC50” for short) [1] was 9.98 nM and the “EC50” value [2] was 3.6 nM.

B2: AS06617 HCAb (Fc fusion)
heavy: DVQLVESGGGLVQAGDSLRLSCAASGRTFISYAVGWFRQAPGSEREFVAGIRWNGIHTDYADSVKGRFTISRDNAKNTVTLEMTSLKPEDTAVYYCAAHRTIATIPEKYEYEYWGQGTQVTVSS[human IgG1 Fc not written out]
notes: as for B1
With B2 the “EC50” value [1] was 6.2 nM, the “EC50” value [2] was 3.86 nM and the kon [3] was 310000 M⁻¹ s⁻¹.

B3: AS06618 HCAb (Fc fusion)
heavy: EVQLVESGGRLVRAGDSLRLSCAASGRTFLSYAVGWFRQAPGTEREFVAGIRWSGGYTDYAEAVKGRFTISRDNAKNTVYLQMNSLKPEDTAVYYCAAHRTIATIPEKYEYEYWGQGTQVTVSS[human IgG1 Fc not written out]
notes: as for B1
In the case of B3, the “EC50” value [1] is reported as 6.45 nM.

B4: AS06682 HCAb (Fc fusion)
heavy: AVQLVESGGGLVQAGDSLRLSCTASGRTFLSYAVGWFRQAPGTEREFVAGIRWSGEHTDYAASVKGRFTISRDNAKNTVYLQMNSLKPEDTAVYYCAAHTTIATIPKKYEYEYWGQGTQVTVSS[human IgG1 Fc not written out]
notes: as for B1
B4 was tested, and the “EC50” value [1] was 6.66 nM.

B5: AS06750VH2 HCAb (Fc fusion)
heavy: EVQLVESGGGLVQPGGSLRLSCAASGRTFLTYAVGWFRQAPGKGLEWVAGIRWSGGYTDYADSVKGRFTISRDNSKNTVYLQMNSLRAEDTAVYYCAAHRTIATIPEKYEYEYWGQGTLVTVSS[human IgG1 Fc not written out]
B5 was tested, and the “EC50” value [2] was 4.44 nM.

B6: AS06750VH11 HCAb (Fc fusion)
heavy: EVQLVESGGGLVQPGGSLRLSCAASGRTFLTYAVGWFRQAPGKGREFVSGIRWSGGYTDYADSVKGRFTISRDNAKNTLYLQMNSLRPEDTAVYYCAAHRTIATIPEKYEYEYWGQGTLVTVSS[human IgG1 Fc not written out]
With B6 the “EC50” value [2] was 3.61 nM.

B7: AS06775 HCAb (Fc fusion)
heavy: QVQLVESGGGLVQAGDSLRLSCAASGRTFLTLAVGWFRQAPGTEREFVAGIRWSGSGTDYADSVKGRFTISRDNAKNTVYLQMNSLKPEDTAVYYCAAHTTIATIPEKYEYEYWGRGTQVTVSS[human IgG1 Fc not written out]
notes: heavy chain-only antibody: sdAb fused with human Fc region; also called AS0775
For B7, the “EC50” value [1] was 5.8 nM and the “EC50” value [2] was 3.08 nM.

B8: AS12003 HCAb (Fc fusion)
heavy: EVQLVESGGGLVQAGDSLRLSCAASGRTFLSYAVGWFRQAPGTEREFVAGIRWSGGSTDYADSVKGRFTISRDNAKNTVYLQMNSLKPEDTAVYYCAAHRTIATVPNKYEYDTWGQGTQVTVSS[human IgG1 Fc not written out]
notes: as for B1
In the case of B8, the “EC50” value [1] is reported as 9.34 nM.

B9: AS06730 HCAb (Fc fusion)
heavy: QVQLVESGGGLVQAGGSLRLSCAASGRTFITYAIGWFRQAPGKEREFVSAINWSGSMTSYADSVKGRFTISRDNAKNTVYLQMNGLKPEDTAVYYCAAHRGAIAPIAQSVYTNWGQGTQVTVSS[human IgG1 Fc not written out]
notes: heavy chain-only antibody: sdAb fused with human Fc region; also called AS0730 HCAb
In the case of B9, the “EC50” value [1] is reported as 6.79 nM and the “EC50” value [2] is reported as 2.15 nM.

B10: AS06628 HCAb (Fc fusion)
heavy: QVQLVESGGGLVQAGGSLRLSCAASGRTFITYAIGWFRQAPGKEREFVTAINWSGSMTSYADSVKGRFTISRDNNKNMVYLQMNSLKPEDTAVYYCAAHRGAIAPMTQSVYDYWGQGTQVTVSS[human IgG1 Fc not written out]
notes: as for B1
For B10, the “EC50” value [1] was 5.88 nM.

B11: AS06703 HCAb (Fc fusion)
heavy: EVQLVESGGGLVRAGGSLRLSCAASGRTFITYAIGWFRQAPGKEREFVTAINWSGSMTSYADSVKGRFTISRDNNKNTVYLQMNSLKPEDTALYYCAAHLGAIAPMSQSVYDYWGQGTQVTVSS[human IgG1 Fc not written out]
notes: as for B1
In the case of B11, the “EC50” value [1] is reported as 5.59 nM.

B12: AS06730S HCAb (Fc fusion)
heavy: QVQLVESGGGLVQAGGSLRLSCAASGRTFITYAIGWFRQAPGKEREFVSAISWSGSMTSYADSVKGRFTISRDNAKNTVYLQMNGLKPEDTAVYYCAAHRGAIAPIAQSVYTNWGQGTQVTVSS[human IgG1 Fc not written out]
In the case of B12, the “EC50” value [2] is reported as 2.54 nM.

B13: AS06730SVH12 HCAb (Fc fusion)
heavy: EVQLVESGGGLVQPGGSLRLSCAASGRTFITYAIGWFRQAPGKGREFVSAISWSGSMTSYADSVKGRFTISRDNAKNTLYLQMNSLRPEDTAVYYCAAHRGAIAPIAQSVYTNWGQGTLVTVSS[human IgG1 Fc not written out]
For B13, the “EC50” value [2] was 4.6 nM.

B14: AS06791 HCAb (Fc fusion)
heavy: QVQLVESGGGLVQAGGSLRLSCAASGRTFITYAIGWFRQAPGKEREFVTAINWSGSMTSYADSVKGRFTISRDNAKNTVYLQINGLKSEDTAVYYCAAHRGAIAPMTQSVYDYWGQGTQVTVSS[human IgG1 Fc not written out]
B14 was tested, and the “EC50” value [1] was 5.82 nM.

B15: AS06686 HCAb (Fc fusion)
heavy: AVQLVESGGGLVQAGDSLRLACAASGRTFLTYALGWFRQAPGKEREFVAGVSWSGSSTKYADSVKGRFTISRDNAKNTVYMQMNSLKPEDTAVYYCAAQISAIVPISAHEYQYWGQGTQVTVSS[human IgG1 Fc not written out]
notes: as for B1
In the case of B15, the “EC50” value [1] is reported as 7.37 nM.

B16: AS06778 HCAb (Fc fusion)
heavy: QVQLVESGGGLVQAGGSLKLSCAASGRTFITYAMGWFRQAPGKERELVAAISWSGSSTYSADSVKGRFTISRDNAKNTVYLQMNSLKPEDTAVYYCAAEVSARTGEHLPKLMGDYWGQGTQVTVSS[human IgG1 Fc not written out]
notes: as for B1
In the case of B16, the “EC50” value [1] is reported as 5.54 nM.

B17: AS11947 HCAb (Fc fusion)
heavy: DVQLVESGGGLVQAGDSLRLTCSASGRTFISYAVGWFRQAPGTEREFVAGIRWNGISTDYTDSVKGRFTISRDNAKNTVYLQMNSLKPEDTAIYYCAAHRTIATIPNKYEYDHWGQGTQVTVSS[human IgG1 Fc not written out]
notes: as for B1
B17 was tested, and the “EC50” value [1] was 7.55 nM.

B18: AS11948 HCAb (Fc fusion)
heavy: EVQLVESGGGLVQAGDSLRLSCVASGRTFVTYGMGWFRQAPGKEREFVAAINWSGSMTSYGDSVKGRFAISRDNAKNTVYLQMNSLKPEDTAVYYCAAALGAVVYTTREPYTYWGRGTQVTVSS[human IgG1 Fc not written out]
With B18 the “EC50” value [1] was 5.8 nM and the “EC50” value [2] was 5 nM.

B19: AS11948S HCAb (Fc fusion)
heavy: EVQLVESGGGLVQAGDSLRLSCVASGRTFVTYGMGWFRQAPGKEREFVAAISWSGSMTSYGDSVKGRFAISRDNAKNTVYLQMNSLKPEDTAVYYCAAALGAVVYTTREPYTYWGRGTQVTVSS[human IgG1 Fc not written out]
In the case of B19, the “EC50” value [2] is reported as 3.28 nM.

B20: AS11948SVH12 HCAb (Fc fusion)
heavy: EVQLVESGGGLVQPGGSLRLSCAASGRTFVTYGMGWFRQAPGKGREFVSAISWSGSMTSYGDSVKGRFTISRDNAKNTLYLQMNSLRPEDTAVYYCAAALGAVVYTTREPYTYWGQGTLVTVSS[human IgG1 Fc not written out]
In the case of B20, the “EC50” value [2] is reported as 2.91 nM.

B21: AS11948SVH12M8 HCAb (Fc fusion)
heavy: EVQLVESGGGLVQPGGSLRLSCAASGRTFVTYGMGWFRQAPGKGREFVSAISWSGSITSYGDSVKGRFTISRDNAKNTLYLQMNSLRPEDTAVYYCAAALGAVVYTTREPYTYWGQGTLVTVSS[human IgG1 Fc not written out]
For B21, the “EC50” value [2] was 7.86 nM.

B22: AS06617VH11 HCAb (Fc fusion)
heavy: EVQLVESGGGLVQPGGSLRLSCAASGRTFISYAVGWFRQAPGKGREFVSGIRWSGIHTDYADSVKGRFTISRDNAKNTLYLQMNSLRPEDTAVYYCAAHRTIATIPEKYEYEYWGQGTLVTVSS[human IgG1 Fc not written out]
For B22, the “EC50” value [2] was 4.28 nM.

B23: AS06775VH11 HCAb (Fc fusion)
heavy: EVQLVESGGGLVQPGGSLRLSCAASGRTFLTLAVGWFRQAPGKGREFVSGIRWSGSGTDYADSVKGRFTISRDNAKNTLYLQMNSLRPEDTAVYYCAAHTTIATIPEKYEYEYWGQGTLVTVSS[human IgG1 Fc not written out]
B23 was tested, and the “EC50” value [2] was 5.26 nM.

B24: AS06775VH4 HCAb (Fc fusion)
heavy: EVQLVESGGGLVQPGGSLRLSCAASGRTFLTYAVGWFRQAPGKGLEFVSGIRWSGGYTDYADSVKGRFTISRDNSKNTLYLQMNSLRAEDTAVYYCAAHRTIATIPEKYEYEYWGQGTLVTVSS[human IgG1 Fc not written out]
With B24 the “EC50” value [2] was 3.43 nM.
